In paper PMC4336329 (PLoS ONE, 2015):
Screen size: about 310,000 compounds; about 2,200 (0.71%) showed an effect of 50% or more. The effect is printed as a negative number. The list shows a part of the results.

The molecules below were run against human ether-à-go-go-related gene (hERG) potassium channel (human, UniProt Q12809) (assay: primary screen, population patch clamp on CHO cells stably expressing hERG).
human ether-à-go-go-related gene (hERG) potassium channel, sequence (Q12809 whole entry, looked up): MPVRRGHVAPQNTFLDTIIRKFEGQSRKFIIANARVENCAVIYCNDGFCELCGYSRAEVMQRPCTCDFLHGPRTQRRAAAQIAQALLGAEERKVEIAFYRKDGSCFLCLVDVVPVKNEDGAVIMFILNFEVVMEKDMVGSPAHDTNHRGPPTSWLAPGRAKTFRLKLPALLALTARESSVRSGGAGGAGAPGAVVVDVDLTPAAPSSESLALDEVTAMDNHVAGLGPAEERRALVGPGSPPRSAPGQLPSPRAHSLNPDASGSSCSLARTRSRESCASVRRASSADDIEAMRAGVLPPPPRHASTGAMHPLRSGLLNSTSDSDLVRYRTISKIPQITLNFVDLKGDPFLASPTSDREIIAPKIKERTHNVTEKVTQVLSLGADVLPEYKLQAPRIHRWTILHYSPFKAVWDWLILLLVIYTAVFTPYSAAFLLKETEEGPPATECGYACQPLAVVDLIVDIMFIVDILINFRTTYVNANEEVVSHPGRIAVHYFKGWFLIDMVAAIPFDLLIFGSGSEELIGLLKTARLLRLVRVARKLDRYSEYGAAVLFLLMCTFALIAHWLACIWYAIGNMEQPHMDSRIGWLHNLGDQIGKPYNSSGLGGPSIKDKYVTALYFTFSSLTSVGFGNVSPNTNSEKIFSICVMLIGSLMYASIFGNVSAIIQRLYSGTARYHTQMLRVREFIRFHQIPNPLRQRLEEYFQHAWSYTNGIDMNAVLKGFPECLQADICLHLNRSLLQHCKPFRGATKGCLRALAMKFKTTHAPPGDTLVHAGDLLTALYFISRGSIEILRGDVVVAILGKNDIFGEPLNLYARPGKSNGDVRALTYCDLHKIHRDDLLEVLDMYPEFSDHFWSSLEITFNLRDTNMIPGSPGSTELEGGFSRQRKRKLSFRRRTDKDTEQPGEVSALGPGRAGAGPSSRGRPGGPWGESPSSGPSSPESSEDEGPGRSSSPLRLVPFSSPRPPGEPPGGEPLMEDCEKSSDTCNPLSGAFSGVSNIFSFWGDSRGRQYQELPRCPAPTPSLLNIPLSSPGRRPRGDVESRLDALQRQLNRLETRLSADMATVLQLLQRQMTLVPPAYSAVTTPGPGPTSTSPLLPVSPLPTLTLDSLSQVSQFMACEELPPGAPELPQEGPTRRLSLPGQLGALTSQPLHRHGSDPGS

Compound	hERG current change (%, negative = inhibition) at 1uM
O=C(Nc1cccc(-n2cnnn2)c1)c1cc2ccccc2o1	4.8%
COc1ccc(Br)cc1/C=N/N1CCN(Cc2ccccc2)CC1	5.92%
COc1ccccc1N(CC(N)=O)S(=O)(=O)c1ccc(C)cc1	10.9%
N#CC1=C(SCC(=O)c2cc3ccccc3oc2=O)NC(=O)C(C#N)C12CCCC2 (centres unmarked)	3.55%
S=C(N/N=C/c1cccs1)NC1CC2CCC1C2 (centres unmarked)	8.68%
Cc1cc(Nc2nc3ccccc3nc2Cl)n(-c2ccccc2)n1	-7.04%
O=C1c2ccccc2NC(c2ccccc2)N1Cc1ccccc1 (centres unmarked)	-0.114%
CCN(CC)CCN1C(=O)C(O)=C(C(=O)c2cc3cccc(OC)c3o2)C1c1cccs1 (centres unmarked)	11.4%
CCC(C)NC(=O)c1ccc2c(Cl)c3c(nc2c1)CCC3 (centres unmarked)	10.3%
Cc1cc(C)nc(NS(=O)(=O)c2ccc(N3Cc4ccccc4C3=O)cc2)n1	10.7%
CC1(CCc2ccccc2)NC(=O)N(CC(=O)Nc2ccccc2C#N)C1=O (centres unmarked)	10.8%
O=C(Nc1ccc(F)cc1)C1CCN(C(=O)c2ccc([N+](=O)[O-])cc2)CC1	11.5%
Cn1c(CO)cnc1S(=O)(=O)Cc1ccc(Cl)cc1	11.7%
N#CCC(=O)N1CCn2c1nc1ccccc12	12.4%
CCC(=O)Nc1ccc(C(=O)OCc2ccccc2)cc1	9.09%
Cc1cnc(NC(=O)CSc2nnc(Cc3ccccc3)n2C)s1	2.26%
Cn1c(Sc2ccc(C(F)(F)F)cc2[N+](=O)[O-])nnc1-c1ccccc1	-17.9%
C=CCc1cc(C)cc(C)c1OCCn1cncn1	-12.5%
CC(=O)NC12CC3CC(C1)CC(C(=O)OCC(=O)Nc1ncc(Cl)cc1Cl)(C3)C2	-3.32%
CC(C)N(C(=O)COC(=O)c1cccc(N(C)C)c1)c1ccccc1	16.2%
Cc1ccc(-c2nnc3n2N=C(c2ccccc2)CS3)cc1	10.1%
NC(=O)c1ccc(NC(=O)CSc2nncn2-c2ccccc2)cc1	16.5%
CCCCOCCCNc1ncnc2c1[nH]c1ccccc12	-10.2%
O=C(COc1ccc(Cl)cc1Br)NC(=O)NCc1ccccc1	10.4%
CSCCC(NC(=O)C1CC1)c1nc2ccccc2[nH]1 (centres unmarked)	14.6%
CC1CCN(C(=O)CN(Cc2ccccc2)S(C)(=O)=O)CC1	14.6%
